Measured values taken from the supplement of paper PMC11417369.
± gives the standard deviation of the averaged measurements. The list shows a part of the results.

test system: PfAP2-EXP AP2 domain (GST-tagged); assay: gcPBM binding intensity (ln(normalized median fluorescence intensity)); higher = stronger DNA binding
Procedure, shortened: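 GST-fused DNA-binding domains of P. falciparum, expressed in E. coli, were applied at about 25 μg on average for 1 h to an Agilent 4 × 180k array of primer-extended double-stranded 36-bp intergenic genomic probes and negative controls. Binding intensity is the highest Masliner-normalised natural-log median intensity across replicate spots of either probe orientation, measured with Alexa488 anti-GST antibody and a 488 nm scan.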

Row | Sequence | gcPBM binding intensity (ln)
1 | ATGAAATATTTATTTGTGCACTTAATTTGTTGGAAA | 9.05 ± 0.16
2 | CCATTTGGTATTATATGTACATATAATTTTTTTTTT [XGTACX_site157] | 8.63 ± 0.35
3 | AAAAAAAAAAAAAAAACACACATTTATAGTATATAT [CACACA_site1194] | 8.5 ± 0.11
4 | GATTTATTTCATATCACACATTTTGGCTATTTTGTG [CACACA_site5793] | 8.77 ± 0.43
5 | AAAAAAAAAACACACACATGCACATCATATTATATA [TGCATGCA_site133] | 8.72 ± 0.54
6 | TTTTTAGTAACATATAGTACATATATATATATATGT [XGTACX_site4780] | 8.54 ± 0.16
7 | TTAATACAAATAAAAAGTACAAGTATCGAACTACTA [XGTACX_site6308] | 8.37 ± 0.37
8 | ATAATATGAAACTCGTACGAGGTTGTCCCAAATATA [CACACA_negctrl_site1350] | 8.88 ± 0.46
9 | TTATTTTTTCTTCAAATGTGAATTATTCATTTATTT [TGCATGCA_negctrl_site545] | 8.58 ± 0.47
10 | TTTAAAGGTGATAAAACACACGATTTAGAAATGTAT [CACACA_site3161] | 8.59 ± 0.41
11 | GATATGTAAATAATATGTACATATTTATATTGTATT [XGTACX_site4052] | 8.44 ± 0.29
12 | ATATATTATCAACTTACACACAGAAAAATATAATAA [CACACA_site293] | 8.56 ± 0.45
13 | AAAAAGAATGTGAACACACACATTGAATATAATTTA [CACACA_site1262] | 8.28 ± 0.2
14 | GATATTTTTATTTGTTGTACTTAAGATAATAAATGA [XGTACX_site2891] | 8.68 ± 0.28
15 | AATATATTAAAAAAGCGTACAAGAATTGGAAAATGG [XGTACX_site6576] | 9.12 ± 0.36
16 | AAAAAAAAAAAAATACGTACACAAAAAATTGCAAAG [XGTACX_site5663] | 8.83 ± 0.49
17 | ATAAATGTGTTTATTTAACACACAAAAGAAAAAATA [CACACA_site8589] | 8.59 ± 0.73
18 | TGTATAACCTGTGTTACACACATTAAAATTTATATA [CACACA_site4449] | 8.3 ± 0.4
19 | GTATCAAAAGAATACACACACACATACCTATAAATA [CACACA_site7737] | 8.53 ± 0.55

Row | Sequence | gcPBM binding intensity (ln)
20 | AAAGGAAAAAAAGTAGCACACAAATATTTATAATAT [CACACA_site8772] | 8.7 ± 0.56
21 | TGATATCTTAAGAAATGTACAAAGATATAACCATTT [XGTACX_site1913] | 8.56 ± 0.49
22 | ATTTTAATAAAATATGTACACACATACACCCATATA [CACACA_site8326] | 8.84 ± 0.39
23 | CATACATAAATATAAACATGCATATATTTTTTTTAT [TGCATGCA_site616] | 8.46 ± 0.41
24 | TAAATAAAAAAAAATACACACATCTATATAAAATAT [CACACA_site3774] | 8 ± 0.042
25 | TATACTCATGGACACACACACATACACAGACATACA [CACACA_site5024] | 8.82 ± 0.53
26 | AAACGGGAGAAATAAAAATAAAAATAATAAAACAAA [XGTACX_negctrl_site586] | 8.67 ± 0.51
27 | TTCATATATAATTGTACACACAAAAACGACATTGTG [CACACA_site2074] | 8.76 ± 0.37
28 | TAAATATGAGGGAACACACACATGATATATAAATTC [CACACA_site2400] | 8.81 ± 0.43
29 | GGAAATAAAATTAAATGTACGAAAACTCATTAAATT [XGTACX_site4274] | 8.29 ± 0.24
30 | ATATTAAAAAGGAAATGTACGTAATGAAGATCAAGT [XGTACX_site3138] | 9.26 ± 0.35
31 | TAAATAAAAAGACACACACACATATTTATATTTATA [CACACA_site7135] | 8.57 ± 0.4
32 | GAGAAAAATATATACACACACATAAATATATACATA [CACACA_site1895] | 8.62 ± 0.39
33 | TAAATTGGTGCAAAGTGTACATATATATCTTTCCTA [XGTACX_site5458] | 8.67 ± 0.17
34 | AAATATCAACTCAAATGTACAAATCACAAAAATGTA [XGTACX_site5344] | 8.45 ± 0.51
35 | ATATATGATGTATTTGTGCACATATATATATTATTA [GTGCAC_site9471] | 8.75 ± 0.028
36 | TTAAAAAACATTTGAACATGCAATTGTATATGTAGA [TGCATGCA_site334] | 8.82 ± 0.41
37 | TATACACATATATATAGTACATATATAATTTACTAT [XGTACX_site1849] | 8.44 ± 0.22
38 | AGTATTCTAATTTTTAAACACACAAATATAAATAAG [CACACA_site9029] | 8.44 ± 0.38

Row | Sequence | gcPBM binding intensity (ln)
39 | AGGGTTCATATATTAACACACACATACATATTATAT [CACACA_site8959] | 8.71 ± 0.49
40 | TATTTATTAAGACACACACACACACGCACAAAATAA [CACACA_site6254] | 9.11 ± 0.25
41 | ATTGTTACATAAAATGCACACTTTCAAATATGCTAA [CACACA_site5600] | 8.5 ± 0.24
42 | ATATATACCTATATTACACACTTCTTATTCTAAGAA [CACACA_site7421] | 8.38 ± 0.35
43 | AAACAAAAGGAAAACATATATATATTAAATGTATAT [CACACA_negctrl_site1663] | 8.65 ± 0.45
44 | TGAAATTAAATATATACACACATATATATTTATATG [CACACA_site3516] | 8.13 ± 0.33
45 | TTTTTTTTTCTCCATACACACTTGATAAAACTTTTT [CACACA_site4512] | 8.41 ± 0.3
46 | ATTTATATTCCAATATGTACATATTTTCGTATAACC [XGTACX_site8507] | 8.88 ± 0.35
47 | ATTACAAATTCTTTCAGTACATATAAAGAAAAAAAT [XGTACX_site7786] | 8.335 ± 0.021
48 | ATTTAGAATGTTCCTACACACCAAATTTAAGGGTGC [CACACA_site5320] | 8.48 ± 0.46
49 | GCAAAATAACAATGTTACACTTATAAAATTGAGGCA [GTGCAC_negctrl_site68] | 8.36 ± 0.53
50 | AGGCTATAATACCATACACACATTTATAAAATAACA [CACACA_site6990] | 8.5 ± 0.49
51 | TAAAAATTTGATCAAACACACGTTGCATAAATTATA [CACACA_site6040] | 8.74 ± 0.57
52 | TTTTTGTAAACCTACTTCATAATTATTTATATCTAT [XGTACX_negctrl_site599] | 8.63 ± 0.52
53 | ACATATATTTATATATGTACATATGATATATACATA [XGTACX_site6122] | 8.2 ± 0.23
54 | CTTTTGTATATTATATGTACACACAATAAGTTAATA [XGTACX_site1684] | 8.45 ± 0.34
55 | AATTAACAAAAACACACACACACACCCACAAAAAAA [CACACA_site517] | 8.71 ± 0.61
56 | TACATATAAACAATAACACACACCTAGGTACATGGA [CACACA_site8178] | 8.72 ± 0.48
57 | AAAAAAAAAAAACATACACACACATATATATATATA [CACACA_site8452] | 10 ± 0.54
